Results taken from the supplement of paper PMC11417369.
± gives the standard deviation of the averaged measurements. Some of the results follow.

System: PfAP2-EXP AP2 domain (GST-tagged)
Assay: gcPBM binding intensity (ln(normalized median fluorescence intensity)); higher = stronger DNA binding
Outline: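 Binding intensity values are the highest Masliner-normalised natural-log median intensity among replicate spots of either probe orientation. The binding step lasted 1 h in 1× PBS with 1% milk, 0.2 mg/ml BSA, 0.5% salmon testes DNA and 0.03% Triton X-100, using GST-tagged P. falciparum DNA-binding domains expressed in E. coli on an Agilent 4 × 180k array of primer-extended double-stranded 36-bp intergenic genomic probes plus negative controls. Alexa488 anti-GST antibody and a 488 nm scan detected bound protein.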

Row | Sequence | gcPBM binding intensity (ln)
1 | TTGTATCTTCATTTTATCAGAAAAAAAAAAAAAAAT [CACACA_negctrl_site775] | 8.09 ± 0.48
2 | AAAGGGTTACAAGAGGAACACACAAAAAAATAAATA [CACACA_site8406] | 8.81 ± 0.47
3 | AATAAATAAATAAATTAATATATATATATATATAGA [CACACA_negctrl_site1661] | 8.24 ± 0.29
4 | AGCACCCACCAACACACACACACACCCACCCACCGA [CACACA_site368] | 8.63 ± 0.61
5 | TTTTGCGAAAAAAGGTGTACTGTAAATATATTGAGG [XGTACX_site8941] | 8.79 ± 0.28
6 | TACGTAAATTTTAATACACACTATAGGATATTCTGC [CACACA_site5418] | 8.32 ± 0.49
7 | TTTTTTTTTAATTACATAAAATAAAAATATTTCTAT [CACACA_negctrl_site584] | 8.03 ± 0.47
8 | TTAATATGTTTAACCATTTTACATAAATTGATTTGT [CACACA_negctrl_site1100] | 8.39 ± 0.44
9 | TTTTTTTTGATTTGTTTGCACTTATTTCCACAATAA | 8.91 ± 0.41
10 | AAATAAATAAATATACGTACATATATATAATATATA [XGTACX_site5124] | 8.52 ± 0.15
11 | TGAATAAAAAAACCTAGTACTTAAATAAGTATATTT [XGTACX_site7690] | 8.18 ± 0.36
12 | TATATATTTATATTTACACACAGTTACTATGTAGAT [CACACA_site3292] | 8.45 ± 0.36
13 | ATTAAATGATCAAGGTGTACATTAACAAGAACTATA [XGTACX_site7022] | 8.93 ± 0.45
14 | TAAAAAAAATAGAAACGTACATAAAAAATAAATAAT [XGTACX_site5796] | 8.98 ± 0.47
15 | TATATATATACATACGTACACACAAATATTAAAATA [CACACA_site1950] | 8.89 ± 0.014
16 | TATATTTATATATGTTGTACTCTCCAATAATATTCC [XGTACX_site4438] | 8.68 ± 0.29
17 | TTTATTAATGGACACACACACACACCCAAAATAAAA [CACACA_site4294] | 8.92 ± 0.57
18 | TCATATAAAACATGCACACATATGTACTCTTATAAA [CACACA_site3748] | 8.76 ± 0.27
19 | GTACTTATTAAATGTGCATGTTGATATATAAATGTA [TGCATGCA_site902] | 8.69 ± 0.26

Row | Sequence | gcPBM binding intensity (ln)
20 | TTTATATTTTAAAAAATAATATTATGTATTTTTAAA [TGCATGCA_negctrl_site507] | 7.87 ± 0.39
21 | TTTAATATATATATGTGTACATATAAATTATATATA [XGTACX_site8511] | 8.2 ± 0.23
22 | ATATAATAAACGTGTACACAATTAAATTATTATATA [CACACA_site5017] | 8.7 ± 0.23
23 | ATATACATAAAAATATGTACATATAAAATATATACA [XGTACX_site2394] | 8.38 ± 0.25
24 | TAGACTCCCAGACACACACACACACCCATATAATAT [CACACA_site593] | 8.55 ± 0.57
25 | TATTATTATTGTTGATGTACATTTAATATAATATAT [XGTACX_site4482] | 8.49 ± 0.39
26 | TTTTTTTTTTTTGGTGCATGCACATTTTGTTTTTTT [TGCATGCA_site570] | 9.72 ± 0.11
27 | TTATAATCTTTTGGTTCTATAGAATATCAAAAAATA [CACACA_negctrl_site1149] | 8.39 ± 0.68
28 | TTTTTAAAAAAATTGATTCTTTTTCTTTTTTTTCTT [XGTACX_negctrl_site127] | 8.13 ± 0.49
29 | TTTTTTGCTTGGGTGAGAAAAAATAAAATAAAGGAA [TGCATGCA_negctrl_site139] | 8.8 ± 0.37
30 | TATTATTGTCATTTTTTTTTTTTTTTTTTCTATTTC [XGTACX_negctrl_site114] | 8.47 ± 0.61
31 | AAAAAATAAAAGGAAAAAAAAAAAAAAAAAAAAAAT [CACACA_negctrl_site635] | 8.09 ± 0.61
32 | ATTTATACAAAGCTTCGTACATAATGTATTCTTTTT [XGTACX_site2166] | 8.73 ± 0.36
33 | TTTTAATTGTTTATTTGTACATATGTTTAATTATAT [XGTACX_site571] | 8.86 ± 0.4
34 | TTATTAAAAATGTATTGTACAAATTTATTAGTAAAT [XGTACX_site4799] | 8.35 ± 0.18
35 | AAAGTTACATTCGACACACACATAACAACTAAATAA [CACACA_site3419] | 8.63 ± 0.57
36 | TTTTACATATATATATGTACGAAAATGAAAAGGTCA [XGTACX_site5576] | 9.05 ± 0.47
37 | TATTATAATTTTATATGTACACATATATAAATATAT [XGTACX_site4054] | 8.3 ± 0.28
38 | TTTATTTATTAATACACACACACACCCCCACAAAAT [CACACA_site240] | 10.1 ± 0.42

Row | Sequence | gcPBM binding intensity (ln)
39 | TACATAAACATTTATACACACATTAGATATACATAT [CACACA_site6329] | 8.4 ± 0.46
40 | CTAAATAAAGTTAACACACACATAATATTTATATGT [CACACA_site6368] | 8.23 ± 0.27
41 | TCAAAGAGTAGAAAGGTGCTTATGAACGAGATAATT | 8.6 ± 0.26
42 | TTTTTTAAAACTTCAAAAAGAGCACTTGAATTTTTT [GTGCAC_negctrl_site455] | 8.07 ± 0.35
43 | ACATATACATTTATATGTACTCATTTATCTTATGTA [XGTACX_site6594] | 8.49 ± 0.25
44 | AAATATTACATACACGCACACATTAATATATTTAAA [CACACA_site2603] | 8.63 ± 0.35
45 | AACTAAATTTATAATTGTACATTAAAATATGTATTA [XGTACX_site479] | 8.28 ± 0.4
46 | ACCTAATTTTTATATTGTACATAATATAATATATAT [XGTACX_site1715] | 8.66 ± 0.3
47 | ACCTACACAAGCATTAAACACACAAAAGGGATACTT [CACACA_site8273] | 8.71 ± 0.71
48 | ACAAGAACAGAACGTACACACACATATATATATATA [CACACA_site9143] | 9.97 ± 0.39
49 | CTCCACAAACAAATCGCACACCCAACCCAACATATA [CACACA_site2650] | 9.22 ± 0.57
50 | ATAGAACTGAATAAATCTATAAATAAATATATATAT [GTGCAC_negctrl_site604] | 9.16 ± 0.23
51 | TATTATAATGACTATAGTACATAATATTATTTATAT [XGTACX_site1977] | 8.43 ± 0.47
52 | TCATACCTACATAAAAAAAGGGAAACAAAATGTCAT [XGTACX_negctrl_site34] | 8.57 ± 0.55
53 | AATAAATATAAATACACACCCATATATATATATATA [CACACA_site5436] | 10.2 ± 0.35
54 | ACCAATAAATATTTGGTGCATACATATATATATATA | 9.95 ± 0.26
55 | TTAAAAAAAAAAAAAAGTACACACTTATAAAATATT [XGTACX_site1630] | 8.4 ± 0.4
56 | ATTTTTGTGACTAAGACATGCATAAGAGTAAAGAAA [TGCATGCA_site619] | 9.14 ± 0.49
